The record followed here is the RNAGym collection of RNA variant scans (doi:10.7554/elife.90254).

Read counts are not given, so values of variants with three or more changes are uncertain.

The chains are these.
B1: LINE1-full (parent)
chain: UACGUAGGUGGUUUUCCCCUGAUAGUGCUAAGGGGGCCUGGAAGUUUGGACUGGGCAGAGCUCAACACAGCGUGGCAAAGUGGCUGUGGCUAGACUGCCUCUCUGGAUUCCUCGUCACUCAGCAGGGCAUCUCUGAGAGAAAUGCC

The variants in the series derive from B1. In words: self-cleavage, relative activity (ratio to wild type); higher = more cleavage; in vitro, sequencing; the parent is a self-cleaving ribozyme.
As to CACGUAGGUGGUUUUCCCCUGGUAGCGCUAAGGGGGCCUGGAAGUUUGGACUGGGCAGAGCUCAACACGGCGUGGCAAAGAGGCUGUGGCUAUACUGCCUCUCUGGAUUCCUCGUCACUCAGCAGGGCACCUCUGAGAGAAAAGCC [U1C A22G U26C A69G U81A G93U U130C U143A], the self-cleavage is 0.
With CACGUAGGUGGUUUUCCCCUGAUAGUGCUAAGGGGGCCUGGAAGUUUGGACUGGGCAGAGCUCUACACAGCGUGGCAAAGUGGCUGUGGCUAGACUGCCUCUCUGGAUUCCUCGUCACUCAGCAGGGCAUCUCUGAGAGAAAAGCC [U1C A64U U143A], the self-cleavage amounted to 0.27.
For the variant CACGUAGGUGGUUUUCCCCUGAUAGUGCUAAGGGGGCCUGGUAGUUUGGACUGGGCAGAGCUCAACACAGCGUGGCAAAGUGGCUGUGGCUAGACCGCCUCUCUGGAUUCCUCGUCACUCAGCAGGGCAUCUCUGAGAGAAAUGCC [U1C A42U U96C], the self-cleavage came to 0.11.
As for CACGUAGGUGGUUUUCCCCUGAUGGUGCUAAGGGGACCUGGGAGUUUGGACUGGGCAGAGCUCAACACAGCGUGGCUAAGUGGCUGUGGCUAGACUGCCUCUCUGGAUUCCUCGUCAUUCAGCAGGGCAUCCCUGAGGGAAAUGCC [U1C A24G G36A A42G A77U C118U U132C A138G], the self-cleavage amounted to 1.15.
As to CGCGUAGGUGGUCUUCCCCUGAUAGUGCCAAGGGGGCCUGGAAGUUUGGACUGGGCAGAGCUCAACACAGCGUGGCAAAGUGGCUGUGGCUAGACUCCCUCUCUGGAUUCCUCGUCACUCAGCAGGGCAUCUCUGAGAGAAAUGCC [U1C A2G U13C U29C G97C], the self-cleavage turned out to be 0.32.
As to CGCGUAGGUGGUUUUCCCCUGAUAGUGCUAAGGGGGCCUGGAAGUUUGGACUGGGCAGAGCUCAACACAGCGCGGCAAAGUGGCUUUGGCUAGACUGCCUCUCUGGAUUCCUCGACACUCAGCAGGGCAUCUCUGAGAGAAAUGCC [U1C A2G U73C G86U U115A], the self-cleavage came out at 0.2.
On to CACGUAGGUGGUUUUCCCCUGGUAGUGCUAAGGGGGCCUGGAAGUUUGGACUGGGCAGAGCUCAACACAGCGUGGCAAAUUGGCUGUGGCUAGACUGCCUCUCUGGAUUCCUCGUCGCUCAGCAGGGCAUCUCUGAGAGAAAUGCC [U1C A22G G80U A117G], for which the self-cleavage worked out at 1.1.
Regarding CACGUAGGUGGUUUUCCCCUGAUAGUGCUAAGGGGGCCUGGGAGUUUGGACCGGGCAGAGCUCGACACAGCGUGGCAAAGUGGCUGUGGCUAGACUGCCUCUCUGGAUUCCUCGUCACUCAGCAGGGCAUCUCUGAGAGAAAUGCC [U1C A42G U52C A64G], the self-cleavage amounted to 1.48.
As to CACGUAGGUGGUUUUCCCCUGUUAGUGCUAAGGGGGCCUGGAAGUUUGGACUGGGCGGAGCUCAACACAGCGUGGCAAAGUGGCUGUGGCUAGACUGCCUCUCUGGAUUCCCCGUCACUCAGCAUGGCAUCUCUGAGAGAAAUGCC [U1C A22U A57G U112C G125U], the self-cleavage was found to be 0.68.
The same measure for CACGUAGGUGGUUUUCCCCUGAUAGUGCUAAGGGGGCCUGGAAGUUUGGACUGGGCAGAGCUCAGCACAGCGUGGCAAAGUGGCUGUGGCUAGACUGCCUCUCUGGAUUCCUCGUCACUCGGCAGGGCAUCUCUGAGAGAAAUGCC [U1C A65G A121G]: 0.38.
Consider CACGUAGGUGGUUUUCCCCUGAUAGUGCUAAGGGGGCCUGGAGGUUUGGACUGGGCAGAGCUCAACACAGCGUGGCAUAGUGGCUGUGGCUAGACUGCCUCUCUGGAUUCCUCGUCACUCAGCUGGGCAUCUCUGAGAGUAAUGUC [U1C A43G A78U A124U A140U C145U], for which the self-cleavage was determined as 1.34.
The same measure for CACGUAGGUGGUUUUCCCCUGAUAGUGCUAAGGGGGCCUGGGAGUUUGGACUGGGCAGAGCCCAGCACAGCGUGGCAAAGUGGCUGUGGCUAGACUGCCUCUCUGGAUUCCUCGUCACUCAGCAGGGCAUCUCUGAGAGAAAUGCC [U1C A42G U62C A65G]: 0; for CACGUAGGUGGUUUUCCCCUGAUAGUGCUAAGGGGGCCUGGUGGUUUGGACUGGGCAGAGCUCAACACAGCGUGGCUAAGUGGCUGUGGCUAGACUGCCUCUCUGGAUUCCUCGUCACUCAGCAGAGCAUCUCUGAGAGAAAUGCC [U1C A42U A43G A77U G126A]: 0.63.
Take CACGUAGGUGGUUUUCCCCUGGUAGCGCUAAGGGGGCCUGGAAGUUUGGACUGGGCAGAGCUCAACACAGCGUGGCAAAGUGGCUGUGGCUAGACUGCCUCUCUGGAUUCCUCGUCACUCAGCAGGGCAUCUCUGAGAGAAAUGCC [U1C A22G U26C]: the self-cleavage was 0.95.
The same measure for CACGUAGGUGGUUUUCCCCUGAUAGUGCUGAGGGGGCCUGGAAGUUUGGACUGGGCAGAGCUCAACACAGCGUGGCAAAGUGGCUGUGGCUAGACUGCCUCUCUGGAUACCUCGCCACUCAGCAGGGCAUCUCUGAGAGAAAUGCC [U1C A30G U109A U115C]: 1.88; for CACGUAGGUGGUUUUCCCCUGGUAGUGCUAAGGGGGCCUGGAAGUUUGGACUGGGCAGAGCUCAACACAGCGUGGCAAAGUGGCUGUGGCUAGACUGCCUCUCUGGAUUCCUCGUCACUCAGCAGGGCAUUUCUGAGAGAAAUGCC [U1C A22G C131U]: 0.49.
For the variant CACGUAGGUGGUUUUCCCCUGAUAGUGCUAAGGGGGCCUGGAAGUUUGGACUGGGCAGAGCUCAGCACAGCGUGGCAAAGUGGCUGUGGCUGGACUGCCUCUCUGGAUUCCUCGUCACUCAGCAGGGCAUCUCUGAGAGAAAUGCC [U1C A65G A92G], the self-cleavage was determined as 0.2.
Regarding CACGUAGGUGGUUUUCCCCUGAUAGUGCUAAGGGGGCCUGGAGGUUUGGUCUGGGCAGAGCUCAACACAGCGUGGCAAAGUGGCUGUGGCUAGACUGCCUCUCUGGAUUCCUCGCCACUCAGCAGGGCAUCUCUGAGAGAAAUGCC [U1C A43G A50U U115C], the self-cleavage turned out to be 0.62.
The value for CACGUUGGUGGUUUUCCCCUGAUAGUGCUAAGGGGGCCUGGAAGUUUGGACUGGGCAGAGCUCAACACAGCGUGGCAAAGUGGCUGUGGCUAGACUGCCUCUCUGGAUUCCUCGUCACUCAGCAGGGCAUCUCUGAGGGAAACGCC [U1C A6U A138G U143C] was 1.44.
The value for CGCGUAGGUGGUUUUCCCCUGAUAGUGCUAAGGGGGCCUGGAAGUUUGGACUGGGAAGAGCUCAACACAGCGUGGCAAAGUGGCUGUGGCUAGACUGCCUCUCUGGAUUCCUCGUCACUCAGCAGGGCUUCUCUGAGAGAAAUGCC [U1C A2G C56A A129U] was 0.25; that for CUCGUAGGUGGUUUUCCCCAGAUAGUGCUAAGGGGGCCUGGAAGUUUGGACUGGGCAGAGCUCAACACAGCGUGGCAAAGUGGCUGUGGCUAGACUGCCUCUCUGGAUUCCUCGUCACUCAGCAGGGCAUCUCUGAGAGAAAUGCC [U1C A2U U20A] was 0.6; that for CGCGUAGGUGGUUUUCCCCUGAUAGUGCUAAGGGGGCCUGGAAGUUUGGACUGGGCAGAGCUCAACACAGCGUGGCAAAGUGGCUGUGGCUAGACUGCCUCUCUGGAUUCCUCGUCACUCAGCAGGGCAUCUCUGAGAUAAAUGCC [U1C A2G G139U] was 0.85.
The value for CACGUAGGUGGUUUUCCCCUGAUAGUGCUAAGGGGGCCUGGAAGUUUGGUCUGGGCAGAGCUCCACACAGCGUGGCAAAGUGGCUGUGGCUAGACUGCCUCUCUGGAUUCCUCGCCACUCAGCAGGGCAUCUCUGAGAGAAGUGCC [U1C A50U A64C U115C A142G] was 0; that for CACGUGGGUGGUUUUCCCCUGAUAGUGCUAAGGGGGCCUGGAAGUUUGGACUGGGCAGAGCUCAACACAGCGUGGCAAAGUGGCUGUGGCUAGACUGCCUCUCUGGAUUCCUCGCCACUCAGCAGGGCAUCUCUGAGAGAAAUGCC [U1C A6G U115C] was 0.77; that for CACGUAGGUGGUUUUCCCCUGAUAGUGCUAAGGGGGCCUGGGAGUUUGGACUGGGCAGAGCUCAACACAGCGUGGCAAAGUGGCUGUGGCUAGACUGCCUCUCUGGAUUCCUCGUCACUCAGCAGGGCACCUCUGAGAGAAAUGCC [U1C A42G U130C] was 0.71.
CACGUAGGUGGUUUUCCCCUGAUAGUGCUAAGGGGGCCUGGAGGUUUGGACUGGACAGAGCUCUACACAGCGUGGCAAAGUGGCUGUGGCUAGACUGCCUCUCUGGGUUCCUCGUCACUCAGCAGGGCAUCUCUGAGAGAAAUGCC [U1C A43G G55A A64U A107G]: the self-cleavage came out at 0.24.
CACGUAGGUGGUUUUCCCCUGAUUGUGCUAAGGGGGCCCGGAAGUUUGGACUGGGCAGUGCUCAACACUGCGUGGCAAAGUGGCUGUGGCUAGACUGCCUCUCUGGAUUCCUCGUCACUCAGCAGGGCAUCUCUGAGAGAAAUGCC [U1C A24U U39C A59U A69U]: the self-cleavage is 0.13.
The same measure for CACGUGGGUGGUUUUCCCCUGAUAGUGCUAAGGGGGCCAGGAAGUUUGGACUGGGCAGGGCUCAACACAGCGUGGCAUAGUGGCUGUGGCUAGACUGCCUCUCUGGGUACCUCGUCACUCAGCAGGGCAUCUCUGAGAGAAAUGCC [U1C A6G U39A A59G A78U A107G U109A]: 0; for CACGUUGGUGGUUUUCCCCUGAUAGUGCUAAGGGGGCCUGGAAGUUUGGACUGGGCAGAGCUCAACACAGCGUGGCAAAGUGGCUGAGGCUAGACUGCCUCUCUGGAUUCCUCGUCACACAGCAGGGCAUCUCUGAGAGAAAUGCC [U1C A6U U87A U119A]: 0.13; for CACGUAGGUGGUUUUCCCCUGAUAGUGCUUAGGGGGCCUGGAAGUUUGGACUGGGCAGGGCUCAACACAGCGUGGCGAAGUGGCUGUGGCUAGACUGCCUCUCUGGAUUCCUCGUCACUCAGCAGGGCAUCUCUGAGAGAAAUGCC [U1C A30U A59G A77G]: 0.11.
The value for CACGUAGGUGGUUUUCCCCUGGUAGUGCUAAGGGGGCCUGGAAGUUUGGACUGGGCAGAGCUCAACACAGCGUGGCAAAGUGGCUGUGGCUAGACUGGCUCCCUGGAUUCCUCGCCGCUCAGCAGGGCAUCUCUGAGAGAGAUGCC [U1C A22G C98G U102C U115C A117G A141G] was 0.
Consider CACGUAGGUGGUUUUCCCCUGAUAGUGCUGAGGGGGCCUGGAAGUUAGGACUGGGCAGAGCUCAACACAGCGUGGCAAAGUGGCUGUGGCUAGACUGCCUCUCUGGAUUCCUCGUCACUCAGCAGGGCAUCUCUGAGAGAAAUGCC [U1C A30G U47A], for which the self-cleavage was determined as 0.97.
The same measure for CACGUAGGUGGUUUUCCCCUGAUAGUGCUAAGGGGGCCUGGUAGUUUGGACUGGGCGGAGCUCAACACAGCGUGGCAAAGUGGCUGAGGCUAGACUGCCUCUCUGGAUUCCUCGUCACUCAGCAGGGCAUCUCUGAGAGAAAUGCC [U1C A42U A57G U87A]: 0.04; for CACGUAGGUGGUUUUCCCCUGAUAGUGCUGAGGGGGCCUGGAAGUUUGGACUGGGCAGAGCUCAACGCAGCGUGGCAAAGUGGCUGUGGCUAGACUGCCUCUCUGGAUUCCUCGUCACUCAGCAGGGCAUCUCUGAGAGAAAUGCC [U1C A30G A67G]: 0; for CACGUAGGUGGUUUUCCCCUGAUAGUGCUAAGGGGGCCUGGAAGUUUGGACUGGGCGGAGCUCAACACAGCAUGGCAAAGUGGCUGUGGCUAGACUGCCUCUCUGGAUUCCUCGUCAUUCAGCAGGGCAUCUCUGAGAGAAAUGCC [U1C A57G G72A C118U]: 0.98.
The same measure for CACGUAGGUGGUUUUCCCCUGAUAGUGCUGAGGGGGCCUGGAAGUUUGGACUGGGCAGAGCUCGACACAGCGUGGCAAAGUGGCUGUGGCUAGGCUGCCUCUCUGGAUUCCUCGUCACUCAGCAGGGCAUCUCUGAGAGAAAUGCC [U1C A30G A64G A94G]: 0; for CACGUAGGUGGUUUUCCCCUGAUAGUGCUAAGGGGGCCUGGUAGUUUGGACUGGGCAGAGCUCUACACAGCGUGGCAAAGUGGCUGUGGCUAGACUGCCUCUCUGGAUUCCUCGUCACUCAGCAGGGCAUCUCUGAGAGAAAUGCC [U1C A42U A64U]: 0.19; for CACGUUGGUGGUUUUCCCUUGAUAGUGCUAAGGGGGCCUGGAAGUUUGGACUGGGCAGAGCUCAACACAGCGUGGCAAAGUGGCUGUGGCUAGACUGCCUCUCUGGAUUCCUCGUCACUCAGCAGGGCAUCUCUGAGAGAAAUGCC [U1C A6U C19U]: 0.8.
The value for CACGUGGGUGGUUUUCCCCUGAUAGUGCUAAGGGGGCCUGGAAGUUUGGACAGGGCAGAGCACAACCCAGCGUGGCAAAGUGGCUGUGGCUAGACUGCCUCUCUGGAUUCCUCGUCACUCAGCAGGGCAUCUCUGAGAGAAAUGCC [U1C A6G U52A U62A A67C] was 0.21.
